# Data taken from ChEMBL document CHEMBL4888484, “Replenishing the malaria drug discovery pipeline: Screening and hit evaluation of the MMV Hit Generation Library 1 (HGL1) against asexual blood stage Plasmodium falciparum ,using a nano luciferase reporter read-out” (2022).
# About 540 (0.36%) of roughly 150,000 compounds showed an effect of 50% or more. This is one part of the list.
# System: Plasmodium falciparum
# Experiment: Primary screen in NF54 nanoGlo assay, in single point, at 2uM, 72h; a lower Z score goes with more inhibition
# Assay type: functional, Erythrocyte
# Conditions: timepoint 72 hour
SMILES,% Inhibition [%],Z score
COc1ccc(OC[C@@H](O)CN2CCC(O)CC2)c(CN(C)Cc2csc(C)n2)c1,-18,2.05
Cc1cc(CCC(=O)N(C)[C@@H]2COC[C@H]2O)c(C)s1,-2,0.25
Cn1nc(C(F)F)c2cc(C(=O)N3CCn4ncnc4C3)sc21,4,-0.5
O=C(c1nnn2c1CO[C@H](c1ccccc1)C2)N1CCOCC1,-1,0.16
Brc1ccc(C2(c3nnc(CC4CCCCC4)o3)CCOCC2)cc1,-1,0.12
Cc1ncc(CN2CC[C@@]3(CCCN(Cc4cccc(F)c4F)C3=O)C2)n1C,-6,0.77
CCCOc1ccc(CNC(=O)c2cc(COC(C)(C)C)on2)c(C)c1,-8,1.21
CC(=O)N(Cc1cccnc1)[C@H]1CCCN(Cc2cc(C)nn2C)C1,-2,0.16
CCc1ncc(CN(C)Cc2ccccc2CN(C)C)cn1,-11,1.2
O=C(C1CCCC1)N1CC[C@H](Cc2noc(-c3ccncc3)n2)C1,-7,0.83
Cc1cc2ccccc2cc1CN1CCOCC1,-4,0.8
CC1Cc2ccccc2N1C(=O)C1CC2CCCC(C1)C2=O (stereo not given),12,-1.42
Cc1ccc(CNC(=O)N(C)CC2(O)CCOCC2)s1,-22,2.93
O=C1[C@@H]2Cc3c([nH]c4ccccc34)C(CCc3ccccc3)N2C(=O)CN1CCN1CCOCC1 (stereo not given in full),-18,2.72
O=C(NCCc1csc(-c2ncccn2)n1)[C@@H]1NCCc2[nH]cnc21,2,-0.18
CC(=O)c1cn([C@@H](C)C(=O)NCCN2CCNC2=O)c2ccccc12,-12,1.07
Cc1ncnc(N2CC[C@H](c3ccccc3F)C2)c1C,-15,2.2
O=C(N[C@H]1CCn2nccc2C1)c1ccccc1Br,-10,1.62
CC(C)c1nsc(N2CC3CCCC3C2)n1 (stereo not given),-5,0.71
CC(C)c1cc(C(=O)N2CCC[C@H](S(=O)(=O)N3CCOCC3)C2)nn1C,-9,1.15
CC(C)Cc1ncc(C(=O)NCc2ncccc2O)s1,0,-0.01
COc1nc2ccn(CCn3nc(C)nc3C)c(=O)c2cc1C#N,-15,1.69

SMILES,% Inhibition [%],Z score
Cc1cc(C)cc(C(=O)N2CCCC[C@H]2C(=O)N2CCS(=O)(=O)CC2)c1,-3,0.64
Cn1nc(C(=O)N2CCO[C@H](C(C)(C)C)C2)cc1O,5,-0.51
Cc1n[nH]c(C)c1C(C)C(=O)N(C)CC(C)c1ccccc1 (stereo not given),-7,1.07
CCC(C)N1CCC(F)(F)C(CO)C1 (stereo not given),-7,0.85
CC(C(=O)C(C#N)c1ccccn1)c1c(Cl)cccc1Cl (stereo not given),3,-0.44
CN(C)[C@H]1[C@@H]2CC[C@H]1CN(C(=O)Nc1cc(F)c(C(F)(F)F)cc1F)C2,-4,0.7
CCOC(=O)CNC(=O)c1cc(-c2ccc[nH]2)n[nH]1,-4,0.48
CC(C)Cc1nc(CN(C)S(=O)(=O)N2CCCC2)no1,6,-0.98
Cc1ccccc1OCC(=O)NCc1nc(-c2cc[nH]c(=O)c2)no1,-12,2.07
COc1ccc(NC(=O)C(=O)c2ccc[nH]2)cc1Cl,1,-0.09
Cc1nn(C)c(C)c1CNc1cccc(C(=O)NCc2ccccn2)c1,-10,1.37
CC1CCN(C(=O)[C@@H]2CCCCc3nnc(-c4ccccc4)n32)CC1,-8,1.24
NC(=O)C[C@H](c1cn(Cc2ccccc2)c2ccccc12)C1CCCCC1,-14,2.65
O=C(NCc1ccc(F)cc1)Nc1nnc(-c2ccccc2Cl)o1,-1,0.09
c1n[nH]cc1Nc1nc(C2CCCCC2)ns1,29,-3.27
CCOC(=O)CC1C(=O)NC2CCCCC2N1C(=O)Nc1ccc(Cl)cc1 (stereo not given),-11,1.74
O=C(NC[C@@H](c1ccco1)N1CCCC1)c1cnc(-c2ccncc2)nc1,5,-0.86
Cc1ccc(NC2CCN(C)CC2)cc1NC(=O)Cc1cccc2ccccc12,-13,1.61
c1ccc(CN2CCC(c3ccsc3)CC2)nc1,-1,0.1
COc1ccccc1NC(=O)c1c(OC)cc(=O)n2c1CCCC2,-3,0.44
O=C1C[C@@H]2O[C@H](CN(Cc3ccc(F)c(F)c3)C[C@@H]3CN(CCO3)C(=O)[C@@H]3C[C@@H](CN3C3Cc4ccccc4C3)N1)[C@@H](O)[C@H]2O,15,-1.75
Cc1cc(Cl)c2c(c1)c(=O)c(C#N)cn2CC(=O)N1CCC[C@H](C)C1,-3,0.48

SMILES,% Inhibition [%],Z score
CCc1cc(-c2nccn2CCN2CCc3ccccc32)on1,14,-1.84
CC(C)(NC(=O)c1nccn2ccnc12)C(=O)Nc1ccccc1,-3,0.43
CC(C)[C@H](NC(=O)C(=O)Nc1cnc2ccccc2c1)c1ccccn1,-23,4.32
N#CCCCn1nnnc1CCCc1ccccc1,-10,1.49
CCN1[C@H](C)CN(Cc2nnnn2C(C)(C)C)C[C@@H]1C,-2,0.26
C[C@@H](Cn1cncn1)NC(=O)CCC(F)(F)F,-18,3.15
Cc1noc2c1N=C(c1ccc(F)cc1)C[C@@H](c1ccc(F)cc1)C2,36,-4.61
COC(=O)[C@]1(F)CCN(Cc2nc(-c3ccccc3)cs2)C1,-9,1.83
C[C@@H](CN1CCOCC1)NC(=O)c1ccc2ncsc2c1,-1,0.17
O=C(CO[C@H]1CCOC1)N1CCCc2cc(Cl)ccc21,-4,0.32
CCOc1ccc(NS(=O)(=O)c2ccc(-c3[nH]ncc3C(=O)N3CCCCC3)o2)cc1,-10,1.15
Cc1cc(Cl)cc(C(=O)N(C[C@H](C)O)C(C)C)c1,9,-1.73
COC(=O)c1cccc(CN2C[C@@H]3C[C@@H](O)CN3C3(C2)CN(Cc2ccc(S(C)(=O)=O)cc2)C3)c1,8,-1.44
Cc1ccccc1CC1(NC(=O)CC2CCNCC2)CC1,3,-0.46
C[C@@H](CCC(=O)NCc1cc(-c2ccccc2F)no1)N1CCOCC1,-8,1.25
CCC(=O)N1CCN(C(C)=O)[C@@H]1c1ccccc1,6,-0.78
Cc1oc(-c2cccc(F)c2)[n+]([O-])c1C,5,-0.64
Cc1noc(CN2CCN([C@H]3CCN(Cc4ccccc4F)C3)C2=O)n1,0,-0.05
COc1cc(OC)cc(C(=O)N(C)C)c1,-3,0.4
O=C(Cc1nnc(-c2cccs2)o1)NC1CCCCCC1,-14,1.44
COc1cncc(S(=O)(=O)N2c3ccccc3CC2(C)C)c1,21,-2.73
O=C(c1cc2ccccc2c(=O)[nH]1)N1CCC(Nc2cccnc2)CC1,-12,2.07

SMILES,% Inhibition [%],Z score
Cc1ccc([C@@H]2CCCN2S(=O)(=O)CCOC(C)C)s1,-1,0.21
CCn1cc(Br)c(=O)c(NC(=O)[C@H]2CCCOC2)c1,30,-4
Cc1nc(-n2cnnc2)ccc1-c1cc(O)cc(CC[C@H]2CCCCN2)c1,-7,0.8
O=C(Nc1ccccc1F)N[C@H]1CCCS(=O)(=O)C1,3,-0.38
Cc1ccccc1C(=O)N(Cc1ccc(F)cc1)c1cccc(CC(=O)NCCCN2CCOCC2)c1,-2,0.15
Cc1noc(C)c1NC(=O)NCCCCn1ccnc1C,8,-0.88
CCc1ccc(-c2ccc(NC3CCCCC3C)nn2)cc1S(N)(=O)=O (stereo not given),-25,4.92
Cn1cc(Cl)c(C(=O)N2CCC[C@H]2c2cccs2)n1,-6,1.17
O=S(=O)(c1ccc2c(c1)CCC2)N1CCC(c2ncc[nH]2)CC1,2,-0.35
COCCC(=O)N[C@H]1CC[C@]2(C)CC[C@@H]([C@H](C)C(=O)NCc3ccccn3)[C@H](O)[C@H]2[C@@H]1C,-9,1.15
O=C(NC1CCCC1CCO)N1CCc2ccccc2CC1 (stereo not given),-5,0.73
Cc1cccc(N2CCN(c3nc4ccccc4c(=O)n3Cc3ccccc3)CC2)c1C,-12,1.61
N#Cc1cccc(OCCn2nnc3ccccc3c2=O)c1,1,-0.08
O=C(c1ncoc1[C@@H]1CCCO1)N1CC(Cc2ccc(F)c(F)c2)C1,28,-3.18
O=S1(=O)CCN(c2cc(NCc3ncc[nH]3)ccc2F)CC1,-5,0.45
O=C(Nc1ccnn1C1CCN(Cc2ccccc2)CC1)[C@H]1CCOC1,-10,1.08
CCC(=O)NCCn1cnc(-c2ccccc2)c1-c1ccc2nonc2c1,-10,1.88
O=C(CN1CCN(C(=O)Nc2ccccc2)CC1=O)NCc1ccccc1Cl,-22,2.79
CC(=O)N1CCCN(c2nc(C3CCOCC3)nc3c2cnn3-c2ccccc2)CC1,-12,1.34
